Where “and” joins values, the source holds several entries; their conditions need not be identical. Identical values can stand only once. Among all 420,000 compounds or so, about 64,000 (15%) were called active. The inconclusive results got no clear call from the source; some entries with a clear call stand among them for comparison. The call rests on the fitted dose curve; in most records, active means well fitted inhibition curve with a large enough effect; inconclusive means small, poorly fitted or top-dose-only effect; inactive means flat fitted curve, though single readings scatter. Potencies of inconclusive entries are left out as doubtful fits. The source holds several records for some structures; these can differ, active in one and inactive in another.
Test: qHTS for Inhibitors of human tyrosyl-DNA phosphodiesterase 1 (TDP1): qHTS in cells in absence of CPT; further: nearly all actives have a fitted effect of over 55% in size
Settings: DT40 Tdp1-/- hTDP1 cells, no CPT, ATP luminescence, 48 h; series mostly up to 46.2 µM
Method in brief: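 Growth of hTDP1-complemented DT40 Tdp1-knockout cells is measured by ATP luminescence after at least 48 hr compound exposure at 37 °C, with DMSO substituting for the 20 nM CPT used in the parallel screen.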
Potency means the concentration at half of the fitted maximal effect; tags describe the fitted curve by direction and shape.

| SMILES | Potency |
| --- | --- |
| CCc1nn(CC(=O)Nc2c(C)cc(C)cc2C)c(=O)c2cc3sccc3n12 | inactive |
| C=Cc1ccc(Cn2c(=O)n(-c3ccccc3C)c(=O)c3c4c(sc32)CN(C(C)=O)CC4)cc1 | inconclusive [inhibitor, single point] |
| OC1CCCN(c2c3c(nc4cc(-c5cccc(F)c5)nn24)CCCC3)C1 (stereo not given) | inconclusive [inhibitor, single point] |
| O=C(c1cccc(NS(=O)(=O)c2cccc(F)c2)c1)N1CCN(c2ccccc2)CC1 | inconclusive [inhibitor, single point] |
| COCC(=O)N1CCC[C@@]2(CCN(C(c3ccccc3)c3ccccc3)C2)C1 | inconclusive [inhibitor, single point] |
| Cc1sc2ncnc(Sc3nnnn3-c3ccc(Cl)cc3)c2c1C | inconclusive [inhibitor, single point] |
| CC1(Cc2ccc(OC(F)(F)F)cc2)C(=O)Nc2ccc(OC(F)(F)F)cc21 (stereo not given) | inconclusive [inhibitor, single point] |
| Cc1ccc(C(=O)Nc2ccc3c(c2)N(C)C(=O)c2ccccc2S3)cc1F | active: 0.82 µM |
| CCOC(CCn1c(SCC(=O)NC2CCCC2)nc2ccccc2c1=O)OCC | inconclusive [inhibitor, partial curve] |
| CC(=O)Nc1ccc(C(=O)CSc2nnc(C)o2)cc1 | inactive |
| CON(C)c1nc(Oc2ccc(=O)[nH]n2)nc(N(C)C)n1 | inactive |
| COc1ccccc1NC(=O)C1CCN(S(=O)(=O)c2cccs2)CC1 | inactive |
| O=C(Nc1cccnc1)/C(N=Nc1cccnc1)=C(\O)c1ccccc1 | inactive |
| CC(C)CCN(CCC(C)C)C(CO)(CO)CO | inconclusive [inhibitor, partial curve] |
| CCOc1ccccc1CN1CCN(CC2=Cc3cc(OC)ccc3OC2)CC1CCO (stereo not given) | inconclusive [inhibitor, single point] |
| COc1ccc(Cn2c(SCC#N)nc3ccc(N4CCOCC4)cc3c2=O)cc1 | inconclusive [inhibitor, single point] |
| COc1cc(NC(=O)c2cc(OC)c(OC)c(OC)c2)ccc1NC(=O)c1cccs1 | inconclusive [inhibitor, partial curve, poor fit] |
| COc1cc(NC(=O)c2cc(OC)c(OC)c(OC)c2)cc(-n2cnnn2)c1 | inconclusive [inhibitor, single point] |
| CCN(Cc1ccccc1)C(=O)Nc1ccc2c(c1)N(C)C(=O)c1ccccc1S2 | inconclusive [inhibitor, single point] |
| O=C1c2ccccc2C(=O)c2cc(N3CCCCC3)ccc21 | inconclusive [inhibitor, single point] |
| Cc1ccc(N2C(=O)N(CC(=O)Nc3cc(C)cc(C)c3)C(=O)C2C)cc1 (stereo not given) | inconclusive [inhibitor, single point] |
| COc1ccc(-n2c(-c3ccc(Br)cc3)n[nH]c2=S)cc1 | inconclusive [inhibitor, single point] |
| Cn1c2ccccc2c(=O)c2c(=O)n(-c3ccccc3)c(-c3ccc(C(C)(C)C)cc3)nc21 | inconclusive [inhibitor, single point] |
| Cc1ccccc1C(=O)N(CC(=O)Nc1sc(C)c(C)c1C(N)=O)C1CCCC1 | active: 14.6 µM |

| SMILES | Potency |
| --- | --- |
| Cc1cc2oc(=O)cc(-c3ccccc3)c2c(C)c1-c1ccc(C#N)cc1 | active: 16.4 µM |
| CCSc1nnc(NC(=O)CSc2nccn2-c2cccc(C)c2)s1 | inactive |
| COC(=O)[C@H]1C[C@H]2[C@@H]3CC[C@H]4C[C@@H](OC)CC[C@]4(C)[C@H]3CC[C@]2(C)[C@@]2(CCCO2)O1 | active: 16.4 µM |
| COc1ccc2ccccc2c1C(=O)/C=C\c1ccoc1 | inconclusive [inhibitor, single point] |
| CCCCc1cc(=O)oc2cc(OCC(=O)N3CCC(C(=O)O)(c4ccccc4)CC3)ccc12 | inconclusive [inhibitor, single point] |
| COCCN(CCOC)S(=O)(=O)c1ccc(C(=O)Nc2nc(-c3ccncc3)cs2)cc1 | inconclusive [inhibitor, single point] |
| FC(F)(F)c1ccccc1-c1cc(NCc2cccs2)ncn1 | inconclusive [inhibitor, single point] |
| CC1CCN(S(=O)(=O)c2csc(C(=O)Nc3ccccc3)c2)CC1 | inconclusive [inhibitor, single point] |
| COc1ccc([C@H]2CC(=O)C=C(c3cccc(C(C)C)c3)C2)cc1 | inconclusive [inhibitor, partial curve] |
| O=C(N[C@@H]1c2ccccc2CC[C@@H]1OCc1ccccc1)c1ccc(-c2ccccc2)cc1 | inactive |
| CN1CCC(=C2c3ccccc3C=Cc3ccccc32)CC1 | active: 26.6 µM |
| COc1cccc(NC(=O)C(=O)c2cn(CC(=O)N3CCCC3)c3ccccc23)c1 | inconclusive [inhibitor, partial curve] |
| CCOc1ccc(N2C(=O)Nc3ccc(Br)cc3C2(O)C(=O)NCCN(C)C)cc1 (stereo not given) | inactive |
| CC(C)CNS(=O)(=O)c1ccc(OCC(=O)NCc2ccco2)cc1 | inactive |
| O=C(NCCOc1ccccc1F)c1ccccc1SCc1ccc(F)cc1 | inactive |
| CCc1cc(S(=O)(=O)N2CCN(C(=O)c3ccco3)CC2)ccc1OC | inconclusive [inhibitor, partial curve] |
| COc1ccc(N(CC(=O)NCc2ccc(C)cc2)S(=O)(=O)c2c(C)nn(C)c2C)cc1 | inconclusive [inhibitor, single point] |
| CCOC(=O)C1=CN(CC2CCCCC2)CCC1=O | inactive |
| CC(C)N1CCN(c2ccncc2S(=O)(=O)N2CCN(C)CC2)CC1 | inactive |
| O=C(NCc1cccs1)c1ccc(CSc2nc3ccncc3n2Cc2cccc(F)c2)cc1 | active: 20.6 µM |
| COc1cc(OC)c(C2C(C#N)=C(C)NC(C)=C2C#N)c(C(=O)O)c1 | inactive |
| CCOC(=O)C1CCN(c2ncnc3nc[nH]c23)CC1 | inactive |
| CC(C)c1onc(C(=O)NCc2ccccn2)c1[N+](=O)[O-] | inconclusive [inhibitor, partial curve, poor fit] |
| COc1cc(C(c2c(C)[nH][nH]c2=O)c2c(C)[nH][nH]c2=O)cc(Br)c1OC | inconclusive [inhibitor, single point] |

| SMILES | Potency |
| --- | --- |
| CN(C)S(=O)(=O)c1ccc(C(=O)Nc2nnc(-c3cccs3)o2)cc1 | active: 23.1 µM |
| O=C(Cn1ncc2c([nH]c3ccccc32)c1=O)N1CCN(c2ccccc2F)CC1 | inactive |
| CN(Cc1ccc(Cl)c(Cl)c1)C(C(=O)NCc1ccccc1)c1ccco1 (stereo not given) | inconclusive [inhibitor, single point] |
| CS(=O)(=O)Nc1cccc(C2=NN(C(=O)c3cccc(F)c3)C(c3cccs3)C2)c1 (stereo not given) | inconclusive [inhibitor, single point] |
| CN(Cc1ccco1)c1ccnc(-c2ccccc2C(F)(F)F)n1 | inconclusive [inhibitor, single point] |
| CCOc1ccccc1CNC(=O)C1CCN(C(=O)N2CC(CC)Oc3ccc(C)cc32)CC1 (stereo not given) | active: 18.4 µM |
| COc1cccc(CNC(=O)C(=O)NCC(c2ccco2)S(=O)(=O)c2cccs2)c1 (stereo not given) | inconclusive [inhibitor, single point] |
| Cc1ccc(S(=O)(=O)NNC2=NS(=O)(=O)c3ccccc32)c(C)c1 | inactive |
| CC(C)c1c(C(=O)NCc2cccnc2)cnn1-c1nccc(-c2ccccc2F)n1 | inconclusive [inhibitor, single point] |
| Cc1cccc(C(=O)NNC(=O)c2c(O)c3ccccc3n(C)c2=O)c1 | active: 29.1 µM |
| Cc1nn(C)c(Cl)c1CN1CCC(CO)(CC2CCCCO2)CC1 (stereo not given) | inactive |
| O=C(Nc1ccc(F)cc1)N1CCC(c2nc3c(nnn3Cc3ccccc3Cl)c(=O)[nH]2)CC1 | inconclusive [inhibitor, single point] |
| COc1ccc(NC(=O)C[C@H]2C(=O)N(CCc3ccccc3)C[C@@H]2C)cc1 | inconclusive [inhibitor, single point] |
| CC(C)N(C(C)C)S(=O)(=O)c1ccc(NN)nc1 | inconclusive [inhibitor, partial curve] |
| CCOC(=O)c1c(C)n(-c2ccccc2)c2ccc(O)c(CN(C)C)c12 | active: 14.6 µM |
| CC(C)Oc1ccc(C(=O)NCc2ccco2)cc1 | inconclusive [inhibitor, single point] |
| O=C(COC(=O)COc1ccccc1[N+](=O)[O-])Nc1ccc(S(=O)(=O)N2CCCCC2)cc1 | inactive |
| CCOC(=O)c1cnc2c(C)c(C)ccc2c1Nc1ccc(S(=O)(=O)Nc2ncccn2)cc1 | inactive |
| CN(CC1CCCN(CCc2ccc(F)cc2)C1)C(=O)CCC(F)(F)F (stereo not given) | inactive |
| C[C@@H](NCCCc1cccc(C(F)(F)F)c1)c1cccc2ccccc12 | active: 12.6 µM and active: 8.41 µM |
| Cc1ccc(S(=O)(=O)Nc2ccc3ccccc3c2[N+](=O)[O-])cc1 | inconclusive [inhibitor, partial curve] |
| CO[C@@H]1[C@@H](O[C@@H]2O[C@H](C)[C@@H](O[C@H]3C[C@@](C)(O)[C@@H](OC(=O)CC(C)C)[C@H](C)O3)[C@H](N(C)C)[C@H]2O)[C@@H](CC=O)C[C@@H](C)[C@@H](O)/C=C/C=C/C[C@@H](C)OC(=O)C[C@H]1O | active: 2.99 µM and active: 5.96 µM |
